Measurements taken from paper PMC4336329 (PLoS ONE, 2015).
Screen size: about 310,000 compounds; about 14,000 (4.5%) showed an effect of 50% or more. Effects have a minus sign here. The list shows a part of the results.

The compounds below were run against human ether-à-go-go-related gene (hERG) potassium channel (human, UniProt Q12809) (assay: primary screen, population patch clamp on CHO cells stably expressing hERG).
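Also: peak tail current of the secondary pulse compared with the same well before compound.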

Sequence of human ether-à-go-go-related gene (hERG) potassium channel (Q12809 whole entry, looked up): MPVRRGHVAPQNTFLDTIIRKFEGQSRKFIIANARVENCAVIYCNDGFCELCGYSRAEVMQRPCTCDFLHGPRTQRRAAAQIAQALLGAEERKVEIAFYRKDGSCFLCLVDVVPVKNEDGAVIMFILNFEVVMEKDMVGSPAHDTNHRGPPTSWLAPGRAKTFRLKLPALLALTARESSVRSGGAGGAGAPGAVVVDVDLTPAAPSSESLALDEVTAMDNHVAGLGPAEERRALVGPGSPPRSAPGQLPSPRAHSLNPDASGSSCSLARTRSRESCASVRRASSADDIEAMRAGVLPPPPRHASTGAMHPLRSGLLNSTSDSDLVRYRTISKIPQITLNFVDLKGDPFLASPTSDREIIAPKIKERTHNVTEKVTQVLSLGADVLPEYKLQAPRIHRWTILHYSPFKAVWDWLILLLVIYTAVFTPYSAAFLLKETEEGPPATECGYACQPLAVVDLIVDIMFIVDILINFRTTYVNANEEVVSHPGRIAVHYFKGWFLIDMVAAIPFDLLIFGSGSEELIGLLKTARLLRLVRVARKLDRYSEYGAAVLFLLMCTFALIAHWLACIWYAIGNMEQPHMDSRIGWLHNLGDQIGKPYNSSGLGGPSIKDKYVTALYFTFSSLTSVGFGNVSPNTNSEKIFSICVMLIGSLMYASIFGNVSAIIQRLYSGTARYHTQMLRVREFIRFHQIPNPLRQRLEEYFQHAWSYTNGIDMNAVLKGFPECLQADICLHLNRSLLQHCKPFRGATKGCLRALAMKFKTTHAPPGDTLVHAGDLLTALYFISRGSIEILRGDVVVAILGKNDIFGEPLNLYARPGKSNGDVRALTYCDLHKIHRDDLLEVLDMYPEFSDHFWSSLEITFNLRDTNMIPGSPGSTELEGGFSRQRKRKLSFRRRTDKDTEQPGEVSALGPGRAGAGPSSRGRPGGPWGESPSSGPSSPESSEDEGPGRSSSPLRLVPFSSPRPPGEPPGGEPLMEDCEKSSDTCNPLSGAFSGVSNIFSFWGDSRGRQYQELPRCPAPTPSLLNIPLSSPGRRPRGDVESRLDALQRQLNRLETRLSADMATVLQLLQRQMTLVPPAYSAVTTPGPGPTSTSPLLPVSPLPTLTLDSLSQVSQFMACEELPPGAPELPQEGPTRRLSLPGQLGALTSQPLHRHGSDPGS

| Compound | hERG current change (%, negative = inhibition) at 10uM |
| --- | --- |
| COCCSc1nnc(NC(=O)C2CCCCC2)s1 | 4.08% |
| Cc1ccc(S(=O)(=O)Oc2ccc(/C=C(/NC(=O)c3ccccc3)C(=O)NCCCC(=O)O)cc2)cc1 | 28.5% |
| C/C(=C\C(=O)c1ccccc1)Nc1ccc(Br)c(Cl)c1 | 11.8% |
| O=C(Cn1cncn1)N/N=C/c1cccc2ccccc12 | -4.06% |
| CC(=O)Nc1ccc(NC(=O)COC(=O)c2ccco2)cc1 | 11.1% |
| COc1ccc(-n2c(O)c(C=Nc3ccccc3)c3ccccc3c2=O)cc1 | 9.14% |
| C[C@@H]1CCCCCCCCCCC1=O | 19.6% |
| Cc1cc(Br)c(NC(=O)Cn2c([N+](=O)[O-])cnc2C)cc1C | 4.01% |
| O=C(O)c1cc(-c2ccc(/C=c3\sc4nc5ccc(Br)cc5n4c3=O)o2)ccc1Cl | 18.4% |
| COc1ccc(N2CCN(C3CCCN(Cc4cccc(C)c4)C3)CC2)cc1 (stereo not shown) | -32.8% |
| Cc1cc(/C=C\c2ccccc2)nc2ccccc12 | -4.46% |
| CCOc1ccc(N2C(=O)CSC2=NC#N)cc1 | 8.44% |
| CSCCC(=O)NC1CCCN(CCc2ccccc2)C1 (stereo not shown) | -38.2% |
| Nc1ccc2nc(-c3ccccc3)c(-c3ccccc3)nc2c1 | -3.61% |
| Cc1noc(/C=C/N(C)C)c1S(=O)(=O)N(C)CC(=O)N1CCc2ccccc21 | -10.7% |
| CCOc1ccc(/C=N/NC(=O)C(C)Sc2ccccn2)cc1OCC (stereo not shown) | 8.67% |
| CC(C)[C@H](NC(=O)c1ccccc1Cl)C(=O)OCc1cc(=O)n2cc(Br)ccc2n1 | -33.7% |
| CCOc1nc(NC(=O)NS(=O)(=O)Oc2ccccc2Cl)nc(-c2ccccc2)n1 | 1.51% |
| COc1ccc(CN(CC(=O)NC2CCCC2)C(=O)c2csnn2)cc1 | -4.99% |
| COc1ccc(S(=O)(=O)N2CCCCC2)cc1NS(=O)(=O)c1ccccc1F | -7.02% |

| Compound | hERG current change (%, negative = inhibition) at 10uM |
| --- | --- |
| COc1ccccc1NC(=O)COC(=O)C1CC2C=CC1C2 (stereo not shown) | -14.1% |
| COc1ccc([N+](=O)[O-])cc1NCC(=O)c1ccc(C)cc1 | 21.9% |
| CCCCOC(=O)C1CCCC(C)N1.Cl (stereo not shown) | 9.98% |
| CCc1nonc1NC(=O)COc1cc(C)c(Cl)c(C)c1 | 14.7% |
| O=C(/C=C/c1ccc(O)cc1)c1c(O)cc(O)cc1O | 11.9% |
| O=C(Nc1cccc(NC(=O)c2ccc(F)cc2)c1)c1ccc(F)cc1 | 17.5% |
| C/C(=N\NC(=O)C(=O)Nc1ccc(C)cc1)c1ccncc1 | -11.4% |
| Cc1c(NC(=O)COC(=O)/C=C/c2ccc(Cl)cc2)c(=O)n(-c2ccccc2)n1C | 28.5% |
| Cc1ccc(C(C)C)c(OCC(=O)NCC(c2cccs2)N2CCOCC2)c1 (stereo not shown) | -48.1% |
| Cn1c(=O)n(-c2cccc(Cl)c2)c(=O)n1C | 6.81% |
| NC(=O)c1cc([N+](=O)[O-])ccc1NCCc1ccccc1 | 13% |
| CCOCCCNC(=O)C(NC(=O)c1ccccn1)c1ccc(C)cc1 (stereo not shown) | -0.00042% |
| O=C(COC(=O)c1ccc(=O)n(Cc2ccccc2)n1)Nc1ccc2c(c1)OCCO2 | 11.5% |
| Cc1ccc(C=C2C(Cl)=C(Cl)C(Cl)=C2Cl)cc1 | 0.693% |
| COC(=O)C1=C(c2cccc(OCc3ccccc3)c2)C[C@@H]2CC[C@H]1N2C(=O)NCc1cccc(C(F)(F)F)c1 | 19.6% |
| COc1ccc(CN2CCN(Cc3ccc(CO)o3)CC2CCO)cc1C (stereo not shown) | -8.64% |
| Cc1ccc(NC(=O)COC(=O)CC2CCCC2)cc1Cl | 6.56% |
| Cc1nc2ccccc2n1Cc1ccc(Br)cc1 | -16.4% |
| Cc1cccc(COCC(Cc2ccccc2)N2CCN(C(=O)c3cccc(C)c3)CCC2=O)c1 (stereo not shown) | -44.7% |
| CC(C)CNc1nc(N)c([N+](=O)[O-])c(NC2CCCCC2)n1 | 7.31% |

| Compound | hERG current change (%, negative = inhibition) at 10uM |
| --- | --- |
| CN(C)c1ccc(C(=O)c2ccc(N(C)C)c3ccccc23)cc1 | 0.727% |
| CCCSc1nc(-c2ccccc2)cc(C(F)(F)F)c1C#N | -0.616% |
| CSc1ncc(Cl)c(C(=O)Nc2ccccc2Cl)n1 | 3.36% |
| CCC(=O)c1ccc(OCC(O)CN2CCOCC2)cc1 (stereo not shown) | 7.44% |
| O=c1oc(-c2cccs2)nc2sc3c(c12)CCCC3 | -1.83% |
| CC(=O)N1c2c(cc(Br)cc2S(=O)(=O)NCc2ccc3c(c2)OCO3)CC1C (stereo not shown) | -49.8% |
| CC(C)(C)NC(=O)C(c1ccncc1)N(Cc1cccs1)C(=O)Cn1nnc(-c2cccs2)n1 (stereo not shown) | -23.3% |
| CCc1ccccc1Nc1nc(N)nc(CSc2nnnn2C)n1 | 8.71% |
| NS(=O)(=O)c1ccc(CCNC(=O)c2cc(=O)[nH]c3ccccc23)cc1 | 21.2% |
| NNC(=O)c1[nH]c(-c2ccccc2)cc1-c1ccccc1 | 21% |
| CC(CNS(=O)(=O)c1ccc(Cl)cc1)n1cncn1 (stereo not shown) | 10.4% |
| CC1CN(c2ccc(NS(=O)(=O)c3ccccc3)cc2C(=O)O)CC(C)O1 (stereo not shown) | 3.11% |
| COc1cccc(C2CC(C(F)(F)F)n3ncc(C(=O)NC(C)(C)C)c3N2)c1 (stereo not shown) | 14.9% |
| CCc1nc2ccccc2c(C(=O)NCc2ccc(OC)cc2)c1C | -15.7% |
| COC(=O)[C@H](C)NC(=O)NCc1ccc(F)cc1 | 9.23% |
| O=C(/C=C/c1cccc([N+](=O)[O-])c1)Nc1ccccn1 | 3.16% |
| CCOC(=O)N1CCN(C(=O)CSc2nc(=O)n3cc(C)ccc3n2)CC1 | -10.6% |
| CCn1c(SCC(=O)Nc2ccccc2F)nc2c(c1=O)SC(C)C2 (stereo not shown) | -17.4% |
